In patent US20040248764A1 (priority 2001, published 2004):
Read-outs that look alike come from different tables or passages of the source.

Columns and labels:
[1] = Procedure: Alternatively, the solution can be prepared without a surfactant by placing the terpene, e.g., citral, in water and mixing under solution-forming shear conditions until the terpene is in solution.
[…] . The citral and water were blended in a household blender for 30 seconds.
Alternatively, moderate agitation also prepared a solution of citral by shaking by hand for approximately 2-3 minutes.
. Examples of these levels are as follows.

H. pylori = conditions: cited from earlier work
[2] = test system: Xylella sp. strains Shiraz, Melody, Coyaga; assay type: cell-based; design: key: NG = No Growth; TNTC = Too Numerous To Count; conditions: 10^8 CFU

C=C(C)C1CC=C(C)C(=O)C1 (centres unmarked) [Carvone]
Solution level (maximum level of terpene that can be solubilized) [1]: 500 ppm

CC(C)=CCC/C(C)=C/CO [Geraniol]
growth of H. pylori in vitro (H. pylori): inhibited the growth | Solution level (maximum level of terpene that can be solubilized) [1]: 500 ppm

CC(=O)/C=C/C1=C(C)CCCC1(C)C [b-ionone]
Solution level (maximum level of terpene that can be solubilized) [1]: 500 ppm

CC(C)=CCCC(C)=CC=O [citral, 3,7-dimethyl-2,6-octadien-1-al]
Xylella growth (CFU) ([2]; strain Coyaga, 125 ppm): NG | Xylella growth (CFU) ([2]; strain Coyaga, 250 ppm): NG | Xylella growth (CFU) ([2]; strain Melody, 125 ppm): NG | Xylella growth (CFU) ([2]; strain Melody, 250 ppm): NG | Xylella growth (CFU) ([2]; strain Shiraz, 125 ppm): NG | Xylella growth (CFU) ([2]; strain Shiraz, 250 ppm): NG*

Terpeniol
Solution level (maximum level of terpene that can be solubilized) ([1]; water, no surfactant, solution-forming shear): 500 ppm
